The campaign covered roughly 370,000 compounds. About 150 (0.041%) were called active. Inconclusive results, whose numbers are uncertain, are shown with a selection of clear calls. The call rests on the fitted dose curve; in most records, active means well fitted inhibition curve with a large enough effect; inconclusive means small, poorly fitted or top-dose-only effect; inactive means flat fitted curve, though single readings scatter. Potencies of inconclusive entries are left out as doubtful fits.
The compounds below were run against Beta-lactamase (Escherichia coli (strain K12)) (UniProt P00811) (assay: qHTS Inhibitors of AmpC Beta-Lactamase (assay with detergent)). Details: AmpC hydrolysis of nitrocefin, absorbance 480 nm, 0.01% Triton; series mostly up to 114 µM.
How it was run: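 20 mM phosphate pH 7.0 + 0.01% (detergent screen) or 0.0001% Triton X-100; 5.3 nM AmpC reagent; cpd preinc 15 min RT; nitrocefin (800 uM stock) to start; A480 q20 s × 4 min; Activity was normalised to no-enzyme and no-compound control wells.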
Further: nearly all actives have a fitted effect of over 25% in size.
Potency means the concentration at half of the fitted maximal effect; tags describe the fitted curve by direction and shape.

Chain of UniProt P00811 (P00811 whole entry, looked up): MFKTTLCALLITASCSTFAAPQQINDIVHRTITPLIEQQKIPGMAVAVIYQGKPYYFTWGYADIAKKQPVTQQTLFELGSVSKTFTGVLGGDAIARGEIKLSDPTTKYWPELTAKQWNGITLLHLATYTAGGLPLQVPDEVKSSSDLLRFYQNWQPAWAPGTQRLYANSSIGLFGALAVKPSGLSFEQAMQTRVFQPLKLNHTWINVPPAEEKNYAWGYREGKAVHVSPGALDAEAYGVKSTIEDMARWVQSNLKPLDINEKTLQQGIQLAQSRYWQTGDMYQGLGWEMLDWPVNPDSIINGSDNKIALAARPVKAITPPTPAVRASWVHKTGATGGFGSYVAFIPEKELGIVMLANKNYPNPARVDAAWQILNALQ

Row | Compound | Potency
1 | CCOc1ccc(NC(=O)CN(C)C(=O)c2cc(S(=O)(=O)N(C)C)ccc2N2CCCC2)cc1OCC | inconclusive [inhibitor, full curve, poor fit]
2 | C=CCn1c(O)c(N=NC(=S)Nc2ccccc2F)c2ccccc21 | inactive
3 | O=C(CC(SCCO)c1ccc2c(c1)OCO2)c1cccs1 (stereo not drawn) | inconclusive [inhibitor, partial curve, poor fit]
4 | COc1ccc2cc3cc(C(=O)NCc4ccccn4)oc3nc2c1 | inactive
5 | CCOC(=O)c1[nH]cnc1C(=O)Nc1ccccc1C | inconclusive [inhibitor, full curve]
6 | Cc1cc(C)n2c(SCC(=O)Nc3ccccc3C#N)nnc2n1 | inconclusive [inhibitor, full curve, poor fit]
7 | Oc1ccccc1N1CCN(C(=S)Nc2ccc(SC(F)F)cc2)CC1 | inconclusive [inhibitor, full curve]
8 | CCCCn1nnnc1SCC(=O)Nc1ccc(C)cc1 | inconclusive [inhibitor, full curve, poor fit]
9 | CCC1CN(C(=O)NCc2ccccc2)c2ccccc2O1 (stereo not drawn) | inactive
10 | O=C(NC(=S)N1C[C@H]2C[C@H](C1)c1cccc(=O)n1C2)c1ccc(Cl)cc1Cl | inconclusive [inhibitor, full curve, poor fit]
11 | Cc1ccc(C(=O)COC(=O)CN2C(=O)C3C4C=CC(C4)C3C2=O)cc1C (stereo not drawn) | inconclusive [inhibitor, single point]
12 | COc1ccc2ccc(OC)c(/C=N/n3cnnc3)c2c1 | inconclusive [inhibitor, full curve, poor fit]
13 | COc1ccccc1Nc1nnc(SCC(=O)N2CC(=O)Nc3ccccc32)s1 | inconclusive [inhibitor, partial curve]
14 | CSCCC(NS(=O)(=O)c1ccc2c(c1)oc(=O)n2C)C(=O)N1CCN(c2cc(Cl)ccc2C)CC1 (stereo not drawn) | inactive
15 | c1ccc(COc2ccc(CN3CCN(c4ccccn4)CC3)cc2)cc1 | inconclusive [inhibitor, full curve, poor fit]
16 | CC1(C)CC(=O)c2sc(NC(=O)c3ccc4ncsc4c3)nc2C1 | inconclusive [inhibitor, full curve]
17 | CC(C)CNS(=O)(=O)c1ccc(CCC(=O)Nc2ccc3c(c2)OCCO3)cc1 | inactive
18 | Cn1c(SCC(=O)Nc2ccccc2)nc2ccccc2c1=O | inconclusive [inhibitor, full curve, poor fit]
19 | Cc1nc(Nc2ccccc2Br)c2nnn(Cc3ccccc3)c2n1 | inconclusive [inhibitor, full curve, poor fit]
20 | COc1ccc(CCC(=O)OCC(=O)Nc2c(C)n(C)n(-c3ccccc3)c2=O)cc1 | inactive
21 | CCOC(=O)C1=C(N)Oc2cc(O)ccc2C1c1ccccc1 (stereo not drawn) | inconclusive [inhibitor, full curve, poor fit]
22 | O=C(CSc1nnc(CNC(=O)c2ccccc2F)o1)Nc1ccc2c(c1)OCO2 | inconclusive [inhibitor, partial curve]

Row | Compound | Potency
23 | Cc1ccc(C)c(N=Nc2nc3ccccc3n2C)c1 | inactive
24 | CCCn1c(N)c(N2CCCCC2)c(=O)n(CC(=O)Nc2ccccc2)c1=O | inconclusive [inhibitor, full curve, poor fit]
25 | COC(=O)C1=C(c2cccc(C#N)c2)C[C@@H]2CC[C@H]1N2C(=O)NCc1ccco1 | inactive
26 | CCN(CC)Cc1cc(C(=O)O)c(C)o1 | inactive
27 | CN(C)c1ccc(C(=O)NCC2CCCO2)cc1 (stereo not drawn) | inconclusive [inhibitor, partial curve, poor fit]
28 | COc1cccc(/C=C/c2n[nH]c(=O)c(C#N)c2C)c1 | inconclusive [inhibitor, partial curve, poor fit]
29 | COc1ccc(C(=O)NNC(=O)CN(C)S(=O)(=O)c2ccc(Cl)cc2)c(OC)c1OC | inconclusive [inhibitor, full curve, poor fit]
30 | C=CCNC(=O)COc1ccc(N(C)S(=O)(=O)c2ccc(NC(C)=O)cc2)cc1 | inactive
31 | Cc1ccc(-c2[nH]c3ccccc3c2SCCNC(=O)c2ccc(S(=O)(=O)N3CCOCC3)cc2)cc1 | inconclusive [inhibitor, partial curve, poor fit]
32 | O=C(CCC(=O)N(CC(=O)NC1CCCC1)Cc1ccc2c(c1)OCO2)Nc1ccccn1 | inconclusive [inhibitor, partial curve, poor fit]
33 | O=C(Cc1cccs1)Nc1cccc(C(=O)Nc2ccco2)c1 | inconclusive [inhibitor, partial curve]
34 | Cc1nc(SCCC(C)C)c([N+](=O)[O-])[nH]1 | inconclusive [inhibitor, full curve]
35 | CCN(CC(=O)Nc1c(F)cccc1F)C(=O)c1ccc(S(=O)(=O)NCc2ccco2)cc1 | inconclusive [inhibitor, full curve, poor fit]
36 | COc1ccc(S(=O)(=O)N2CCCC(C(=O)NC3CC3)C2)cc1Cl (stereo not drawn) | inconclusive [inhibitor, partial curve]
37 | O=C(C1CCCN(S(=O)(=O)c2ccccc2)C1)N1CCCc2ccccc21 (stereo not drawn) | inconclusive [inhibitor, single point]
38 | CCn1c(/C=C/c2ccccc2[N+](=O)[O-])nc2ccccc2c1=O | inactive
39 | COc1ccc(-c2nnc(NC(=O)c3ccc(S(=O)(=O)N4COCC4(C)C)cc3)o2)cc1 | inactive
40 | O=C(c1ccc([N+](=O)[O-])s1)N1CCCc2ccccc21 | inactive
41 | Cc1oc(-c2ccc(Cl)cc2)nc1CS(=O)CC(=O)NC1CC1 (stereo not drawn) | inactive
42 | O=C(COC(=O)c1nsc(Cl)c1Cl)NC1CCCC1 | inactive
43 | CCC(C)[C@H](NS(=O)(=O)c1ccc(C)cc1)C(=O)N1CCC(C(=O)N2CCC(C(N)=O)CC2)CC1 (stereo partly drawn) | inconclusive [inhibitor, full curve, poor fit]

Reference: PubChem BioAssay AID485294 (National Center for Advancing Translational Sciences (NCATS), 2010)
